{
  "source": "PubChem BioAssay AID588453",
  "about": "(National Center for Advancing Translational Sciences (NCATS), 2011)",
  "note": "Screen size: about 390,000 compounds; about 4,000 (1%) were called active. This list was built around the results that the source calls inconclusive (neither active nor inactive); the mix of calls is not that of the screen. Calls follow the shape of the dose curve; as a rule, active = well fitted inhibition curve with a large enough effect; inconclusive = small, poorly fitted or top-dose-only effect; inactive = no such curve, though single readings can be large or run the other way. Potencies beside an inconclusive call are fits to weak or partial responses and may not hold up. Potency is read from the fitted curve at half-maximal effect; tags tell the direction and shape of the fitted curve.",
  "data": [
    {"biological_target": "Thioredoxin reductase 1, cytoplasmic (Rattus norvegicus) (UniProt O89049)", "sequence (O89049 whole entry, looked up)": "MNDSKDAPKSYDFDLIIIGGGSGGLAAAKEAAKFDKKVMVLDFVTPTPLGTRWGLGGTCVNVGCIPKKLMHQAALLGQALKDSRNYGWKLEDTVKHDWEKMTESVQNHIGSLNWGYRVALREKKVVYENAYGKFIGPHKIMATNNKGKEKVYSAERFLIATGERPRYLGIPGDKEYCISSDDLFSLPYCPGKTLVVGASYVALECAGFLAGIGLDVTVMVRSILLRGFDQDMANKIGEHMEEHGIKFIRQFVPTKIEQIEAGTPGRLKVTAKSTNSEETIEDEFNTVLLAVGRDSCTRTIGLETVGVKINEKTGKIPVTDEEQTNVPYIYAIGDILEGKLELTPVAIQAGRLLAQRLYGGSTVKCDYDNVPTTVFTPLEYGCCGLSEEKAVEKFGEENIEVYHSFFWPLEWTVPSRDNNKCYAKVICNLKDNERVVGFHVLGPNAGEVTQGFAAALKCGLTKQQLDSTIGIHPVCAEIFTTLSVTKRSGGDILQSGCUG", "assay": "qHTS Assay for Inhibitors of Mammalian Selenoprotein Thioredoxin Reductase 1 (TrxR1): qHTS; also: nearly all actives have a fitted effect of over 65% in size", "conditions": "recombinant rTrxR1, NADPH fluorescence consumption, selenite substrate; series mostly up to 114 µM", "method_in_brief": "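Rat TrxR1 (90 nM in the dispensed reagent) was pre-reduced with 400 uM NADPH for 5 min at room temperature, then incubated with compound for 15 min. After 400 uM selenite was added, NADPH fluorescence (Ex 340/Em 450 nm) was followed for 8 min.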", "values": [
      {"smiles": "C/C(=N\\NC(=O)c1cc(-c2cccc(OC(C)C)c2)nc2ccccc12)c1cccnc1", "Potency": "inactive"},
      {"smiles": "OC(C#CCN1CCOCC1)c1cccs1", "note": "(stereo not drawn)", "Potency": "inconclusive: 17.8 µM [inhibitor, partial curve]"},
      {"smiles": "CCN1CC2([N+](=O)[O-])C=CC(=O)C([N+](=O)[O-])(C1)C2CC(=O)c1ccccc1", "note": "(stereo not drawn)", "Potency": "inconclusive: 35.5 µM [inhibitor, single point]"},
      {"smiles": "CCN(CC(=O)Nc1ccccc1OC)C(=O)c1cccc(-n2cccc2)c1", "Potency": "inconclusive: 50.1 µM [inhibitor, partial curve]"},
      {"smiles": "COc1ccc(C(=O)CC(=O)C(=O)Nc2cc(OC)c(OC)c(OC)c2)cc1", "Potency": "inactive"},
      {"smiles": "Cc1cccc(-n2c(CCc3ccccc3)nnc2SCC(=O)c2ccccc2)c1", "Potency": "inactive"},
      {"smiles": "Cc1cccc(N2CCN(C(=O)CN3CCOc4ccccc43)CC2C)c1", "note": "(stereo not drawn)", "Potency": "inconclusive: 79.4 µM [inhibitor, single point]"},
      {"smiles": "C1=Cc2ccccc2/C1=C\\c1cccc(/C=C2\\C=Cc3ccccc32)c1", "Potency": "active: 20 µM"},
      {"smiles": "O=C(NNC(=O)c1ccc2ccccc2c1O)NC1CCCCC1", "Potency": "inconclusive: 89.1 µM [inhibitor, single point]"},
      {"smiles": "O=C(NCc1ccccc1)c1nc(S(=O)(=O)Cc2ccc(F)cc2)ncc1Cl", "Potency": "active: 3.55 µM"},
      {"smiles": "Cc1cc(=O)[nH]c(Nc2c(C)n(C)n(-c3ccccc3)c2=O)n1", "Potency": "inactive"},
      {"smiles": "CC1(C)c2ccccc2N2CC(=O)NC21/C=C/c1ccco1", "note": "(stereo not drawn)", "Potency": "inconclusive: 44.7 µM [inhibitor, partial curve, poor fit]"},
      {"smiles": "CCOc1ccc(NC(=S)Nc2cc(-c3ccccc3)[nH]n2)cc1", "Potency": "inconclusive: 10 µM [inhibitor, partial curve]"},
      {"smiles": "C=CCN1C=CC(=C/C=C(/C#N)C(=O)OCC)C=C1", "Potency": "inconclusive: 17.8 µM [inhibitor, single point]"},
      {"smiles": "NS(=O)(=O)c1cccc(NC(=S)NC(=O)C23CC4CC(CC(C4)C2)C3)c1", "Potency": "active: 39.8 µM"},
      {"smiles": "O=C(O)c1cc2c(cn1)[nH]c1ccccc12", "Potency": "inconclusive: 89.1 µM [inhibitor, partial curve, poor fit]"},
      {"smiles": "COc1ccc(Cl)cc1NC(=S)NC(=O)c1ccc2c(c1)OCO2", "Potency": "inconclusive: 56.2 µM [inhibitor, partial curve]"},
      {"smiles": "CN(Cc1ccccc1)c1nnc(NC(=O)Nc2cccc(Br)c2)s1", "Potency": "inactive"},
      {"smiles": "COc1ccc(-c2nn(CCC#N)cc2C=C(C#N)C#N)cc1", "Potency": "inconclusive: 50.1 µM [inhibitor, partial curve, poor fit]"},
      {"smiles": "O=C(O)c1ccccc1Nc1ccccc1C(=O)O", "Potency": "inactive"},
      {"smiles": "Cc1c(Cl)cnn1CC(=O)NC1C(=O)N2C(C(=O)O)=C(CSc3nnnn3C)CSC12", "note": "(stereo not drawn)", "Potency": "inconclusive: 44.7 µM [inhibitor, partial curve]"},
      {"smiles": "COc1cc(/C=C2\\C(=O)ON=C2c2ccccc2)cc(Cl)c1O", "Potency": "active: 15.8 µM"},
      {"smiles": "CC1(C)CC(N2CCCC2)=CC(=[N+]2CCCCCC2)C1", "Potency": "inconclusive: 89.1 µM [inhibitor, partial curve, poor fit]"},
      {"smiles": "CN(CCC1CCOCC1)C(=O)CC1C(=O)NCCN1Cc1ccccc1F", "note": "(stereo not drawn)", "Potency": "inconclusive: 50.1 µM [inhibitor, partial curve]"},
      {"smiles": "COc1ccccc1NC(=O)CSc1nc(O)c(C/C=C/c2ccccc2)c(=O)[nH]1", "Potency": "inconclusive: 79.4 µM [inhibitor, partial curve, poor fit]"},
      {"smiles": "CCOC(=O)c1c(S(=O)(=O)N2CCC(C(=O)NCc3cccc(C)c3)CC2)c(C)n(C)c1C", "Potency": "inactive"},
      {"smiles": "CC(C)C(NS(=O)(=O)c1ccc2c(c1)oc(=O)n2C)C(=O)N1CCN(c2cccc(Cl)c2)CC1", "note": "(stereo not drawn)", "Potency": "inactive"},
      {"smiles": "C(=C\\c1ccco1)/c1ccc2ccccc2n1", "Potency": "inconclusive: 20 µM [inhibitor, single point]"},
      {"smiles": "O=C(NC(=S)Nc1ccc2c(c1)OCCO2)c1cccc(Br)c1", "Potency": "inconclusive: 14.1 µM [inhibitor, full curve]"},
      {"smiles": "CCc1c(C(=O)N/N=C/c2cccs2)nnn1-c1nonc1N", "Potency": "inactive"},
      {"smiles": "CC1(C(=O)OCC(=O)Nc2ccccc2)CC1(Cl)Cl", "note": "(stereo not drawn)", "Potency": "inactive"},
      {"smiles": "CCN1C(=O)/C(=C\\c2ccco2)C(C(=O)OC)=C1C", "Potency": "inconclusive: 70.8 µM [inhibitor, single point]"},
      {"smiles": "COc1cc(C2CC(=O)N3CN(Cc4ccco4)CSC3=C2C#N)ccc1OCc1ccccc1", "note": "(stereo not drawn)", "Potency": "inconclusive: 14.1 µM [inhibitor, partial curve, poor fit]"},
      {"smiles": "CNC(=O)CC12CC3CC(CC(C3)C1)C2", "Potency": "inactive"},
      {"smiles": "O=C(O)CC/C(=N\\Nc1ccc(S(=O)(=O)N2CCOCC2)cc1[N+](=O)[O-])c1cccs1", "Potency": "inconclusive: 56.2 µM [inhibitor, partial curve, poor fit]"},
      {"smiles": "Cn1c(=O)c([N+](=O)[O-])c(Cl)c2ccccc21", "Potency": "active: 2.24 µM"},
      {"smiles": "Cc1ccccc1NC(=O)c1c(NC(=O)c2ccccc2)sc2c1CCC2", "Potency": "inactive"},
      {"smiles": "O=C(NCc1ccco1)C1Cc2ccccc2CN1S(=O)(=O)c1ccccc1F", "note": "(stereo not drawn)", "Potency": "active: 15.8 µM"},
      {"smiles": "O=C(COc1ccc(-c2ccccc2)cc1)N1CCCC1", "Potency": "inactive"},
      {"smiles": "CCN(CC)CCn1c(=O)n(-c2ccc(Cl)cc2)c(=O)c2c3c(sc21)CN(C)CC3", "Potency": "inconclusive: 39.8 µM [inhibitor, full curve, poor fit]"},
      {"smiles": "Cc1ccc(NC(=O)CS(=O)CC(=O)NCCCc2ccccc2)cc1Cl", "note": "(stereo not drawn)", "Potency": "inconclusive: 12.6 µM [inhibitor, partial curve, poor fit]"},
      {"smiles": "CSc1nn(CCc2ccncc2)c(=S)s1", "Potency": "inconclusive: 44.7 µM [inhibitor, partial curve]"},
      {"smiles": "O=C(Nc1ccc(Cl)cc1)Nc1ccccc1Sc1ncc([N+](=O)[O-])s1", "Potency": "inconclusive: 7.94 µM [inhibitor, full curve]"},
      {"smiles": "C#CCOCCOCCOCCNc1nc(N2CCN(C(=O)[C@H](CCCCN)n3cc(CN)nn3)CC2)nc(N2CCN(C(=O)[C@H](CCC(=O)O)n3cc(CN)nn3)CC2)n1", "Potency": "inconclusive: 89.1 µM [inhibitor, single point]"},
      {"smiles": "CCN(c1ccc(NC(=O)c2ccc(N3CCCC3=O)cc2)cc1)C(C)C", "Potency": "inactive"},
      {"smiles": "CC1CCc2nc3ccc(S(=O)(=O)N4CCC(C(=O)N5CCCCC5)CC4)cc3c(C(=O)O)c2C1", "note": "(stereo not drawn)", "Potency": "inactive"},
      {"smiles": "CC1=C(C(=O)OCc2ccccc2)N2C(=O)[C@@H](NC(=O)OCc3ccccc3)[C@H]2SC1", "Potency": "inactive"},
      {"smiles": "COc1ccc(C(=O)Nc2ccc3nc4c(c(Nc5ccc(OC)c(OC)c5)c3c2)CCCC4)c(OC)c1", "Potency": "inconclusive: 89.1 µM [inhibitor, single point]"},
      {"smiles": "CC(=O)Nc1c(C(=O)Nc2cccc(C)c2)nnn1-c1ccc(C)cc1", "Potency": "inconclusive: 15.8 µM [inhibitor, partial curve, poor fit]"},
      {"smiles": "CCC1CCCCN1S(=O)(=O)c1ccc(N2CCCCS2(=O)=O)cc1", "note": "(stereo not drawn)", "Potency": "inactive"},
      {"smiles": "CCN(CC)S(=O)(=O)c1ccc(O)c(NC(=O)CN2CCc3ccccc3C2)c1", "Potency": "inactive"},
      {"smiles": "O=C(NCc1ccco1)C(c1cccs1)N(C(=O)Cc1cccs1)c1ccccc1", "note": "(stereo not drawn)", "Potency": "inconclusive: 20 µM [inhibitor, full curve]"},
      {"smiles": "CN(O)/C=C/C(=O)c1ccc(Br)cc1", "Potency": "inconclusive: 25.1 µM [inhibitor, single point]"},
      {"smiles": "COc1ccc(NC(=O)c2oc3ccc(S(=O)(=O)N(C)C4CCCCC4)cc3c2C)cc1Cl", "Potency": "inactive"},
      {"smiles": "O=[N+]([O-])c1nn(-c2ccc3c(c2)OCCO3)n(O)c1=NC1CCCCC1", "Potency": "inactive"},
      {"smiles": "O=C(COc1coc(CN2CCN(c3ccccc3F)CC2)cc1=O)Nc1ccccc1", "Potency": "inactive"},
      {"smiles": "Cc1ccc(CNC(=O)c2ccc(CNS(=O)(=O)c3ccc4c(c3)C(C)(C)C(=O)N4C)cc2)o1", "Potency": "inconclusive: 79.4 µM [inhibitor, partial curve]"},
      {"smiles": "C=CC(C)(C)c1c(O)c(CC=C(C)C)c(O)c2c(=O)c3ccc(O)c(O)c3oc12", "Potency": "inactive"},
      {"smiles": "Cc1ccc(C2(C)CC(C)(C)N(C(=O)CSc3nnc(C)s3)c3ccccc32)cc1", "note": "(stereo not drawn)", "Potency": "inactive"},
      {"smiles": "O=C(NCc1ccc(Cl)cc1)C(=O)Nc1cccc(Br)c1", "Potency": "inactive"},
      {"smiles": "Cn1c(=O)c2c(SCC(=O)NCc3ccco3)nc(-c3ccccc3F)nc2n(C)c1=O", "Potency": "inactive"},
      {"smiles": "CN(CCc1ccccn1)C(=S)NC(=O)c1ccco1", "Potency": "inconclusive: 89.1 µM [inhibitor, partial curve, poor fit]"},
      {"smiles": "O=C(NCc1ccc(F)cc1)C1CC(=O)N(Cc2ccco2)C1", "note": "(stereo not drawn)", "Potency": "inconclusive: 44.7 µM [inhibitor, partial curve]"},
      {"smiles": "Oc1ccc(N=Nc2ccccc2)o1", "Potency": "active: 31.6 µM"},
      {"smiles": "O=C(CCC1CCCCC1)NCc1ccccn1", "Potency": "inconclusive: 79.4 µM [inhibitor, single point]"},
      {"smiles": "O=C1C(Cl)=C(NC(=O)c2ccccc2)C(=O)C(Cl)=C1NC(=O)c1ccccc1", "Potency": "active: 0.316 µM"},
      {"smiles": "Cc1ccc(CNS(=O)(=O)c2ccc(F)c(F)c2)n1C", "Potency": "inconclusive: 50.1 µM [inhibitor, partial curve]"},
      {"smiles": "COc1ccc(COCC(O)CN2CCc3ccccc3C2)cc1OC", "note": "(stereo not drawn)", "Potency": "inactive"},
      {"smiles": "O=C(CN1CCN(S(=O)(=O)/C=C/c2ccccc2)CC1)NC(=O)NCc1ccco1", "Potency": "inconclusive: 35.5 µM [inhibitor, single point]"},
      {"smiles": "C#CCOc1c(Cl)cc(/C=C2/C(=O)ON=C2C)cc1OCC", "Potency": "inconclusive: 22.4 µM [inhibitor, full curve]"},
      {"smiles": "CCOC(=O)c1c(C)[nH]c(C(=O)N2CCc3cc(OC)c(OC)cc3C2)c1C", "Potency": "inconclusive: 31.6 µM [inhibitor, partial curve, poor fit]"},
      {"smiles": "c1ccc(C2=NNC(c3ccccn3)=NN2)nc1", "Potency": "inactive"},
      {"smiles": "COc1ccccc1-c1cc(C(F)(F)F)nc(S(=O)(=O)CCCC(=O)Nc2cc(Br)ccc2O)n1", "Potency": "inconclusive: 39.8 µM [inhibitor, partial curve, poor fit]"}
    ]}
  ]
}
